Test results as given in paper PMC12820563, “FoxP3 forms a head-to-head dimer in vivo and stabilizes its multimerization on adjacent microsatellites”.
Some of the results follow.

Target: T1, MBP-FoxP1dN (Mus musculus, UniProt P58462 326-579)
T1 sequence: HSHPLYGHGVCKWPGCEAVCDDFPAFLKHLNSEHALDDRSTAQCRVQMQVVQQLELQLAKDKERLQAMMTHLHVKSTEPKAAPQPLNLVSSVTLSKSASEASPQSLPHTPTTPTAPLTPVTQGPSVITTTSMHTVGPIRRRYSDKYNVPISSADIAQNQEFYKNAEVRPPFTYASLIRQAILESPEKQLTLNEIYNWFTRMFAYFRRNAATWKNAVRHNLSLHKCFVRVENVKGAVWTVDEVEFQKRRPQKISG
Experiment: PD-seq (MBP pull-down with sequencing); 20 mM Tris-HCl pH 7.5, 100 mM NaCl, 1.5 mM MgCl2, 0.4 uM protein, 0.1 uM dsDNA library, 30 min, room temperature, amylose pull-down; high values mean tight binding
Settings: protein: recombinant; tags: His6-MBP; chain copies: 2; dsDNA, one strand shown
How it was run: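 The N-terminus-lacking fragment of mouse FoxP3 or FoxP1 carried a His6-MBP tag and was expressed in E. coli. At 0.4 µM it was incubated with 0.1 µM Klenow-filled degenerate double-stranded DNA library for 30 min at room temperature in Tris pH 7.5 buffer with NaCl and MgCl2, and complexes were caught on amylose resin, washed three times, released with proteinase K, PCR-barcoded and Illumina-sequenced. Binding is reads-per-million enrichment of pull-down over input with replicates pooled.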

| Sequence | binding signal |
| --- | --- |
| GATGATTGTTCTCCCAGCTGATGAATTGTAAGGTTCGAGTAAACAAATTTTCCTAATCTTTCTGTTCAAGCGCCATCTAC | 0.881 RPM ratio (pull-down/input) |
| GATGATTGTTCTCCCAGCTGATGAATTGAAGTCCTCGAGTAAACAAATTTTCCTAATCTTTCTGTTCAAGCGCCATCTAC | 0.817 RPM ratio (pull-down/input) |
| GATGATTGTTCTCCCAGCTGATGAATTCCACCCCTCGAGTAAACAAATTTTCCTAATCTTTCTGTTCAAGCGCCATCTAC | 0.781 RPM ratio (pull-down/input) |
| GATGATTGTTCTCCCAGCTGATGAATTAATCGGCTCGAGTAAACAAATTTTCCTAATCTTTCTGTTCAAGCGCCATCTAC | 0.83 RPM ratio (pull-down/input) |
| GATGATTGTTCTCCCAGCTGATGAATTTCGCCTTTCGAGTAAACAAATTTTCCTAATCTTTCTGTTCAAGCGCCATCTAC | 0.926 RPM ratio (pull-down/input) |
| GATGATTGTTCTCCCAGCTGATGAATTACCACGGTCGAGTAAACAAATTTTCCTAATCTTTCTGTTCAAGCGCCATCTAC | 0.924 RPM ratio (pull-down/input) |
| GATGATTGTTCTCCCAGCTGATGAATTGCTTTGCTCGAGTAAACAAATTTTCCTAATCTTTCTGTTCAAGCGCCATCTAC | 1.06 RPM ratio (pull-down/input) |
| GATGATTGTTCTCCCAGCTGATGAATTAGTGGTTTCGAGTAAACAAATTTTCCTAATCTTTCTGTTCAAGCGCCATCTAC | 0.926 RPM ratio (pull-down/input) |
| GATGATTGTTCTCCCAGCTGATGAATTTAAATCGTCGAGTAAACAAATTTTCCTAATCTTTCTGTTCAAGCGCCATCTAC | 0.931 RPM ratio (pull-down/input) |
| GATGATTGTTCTCCCAGCTGATGAATTACTGCCATCGAGTAAACAAATTTTCCTAATCTTTCTGTTCAAGCGCCATCTAC | 1.04 RPM ratio (pull-down/input) |
| GATGATTGTTCTCCCAGCTGATGAATTTCTCTTCTCGAGTAAACAAATTTTCCTAATCTTTCTGTTCAAGCGCCATCTAC | 0.81 RPM ratio (pull-down/input) |
| GATGATTGTTCTCCCAGCTGATGAATTACAGATGTCGAGTAAACAAATTTTCCTAATCTTTCTGTTCAAGCGCCATCTAC | 1.19 RPM ratio (pull-down/input) |
| GATGATTGTTCTCCCAGCTGATGAATTGGGAGTATCGAGTAAACAAATTTTCCTAATCTTTCTGTTCAAGCGCCATCTAC | 0.972 RPM ratio (pull-down/input) |
| GATGATTGTTCTCCCAGCTGATGAATTTATTCGATCGAGTAAACAAATTTTCCTAATCTTTCTGTTCAAGCGCCATCTAC | 1.14 RPM ratio (pull-down/input) |
| GATGATTGTTCTCCCAGCTGATGAATTCGGATACTCGAGTAAACAAATTTTCCTAATCTTTCTGTTCAAGCGCCATCTAC | 0.852 RPM ratio (pull-down/input) |
| GATGATTGTTCTCCCAGCTGATGAATTGCGCTGTTCGAGTAAACAAATTTTCCTAATCTTTCTGTTCAAGCGCCATCTAC | 1.07 RPM ratio (pull-down/input) |
| GATGATTGTTCTCCCAGCTGATGAATTATTTGTGTCGAGTAAACAAATTTTCCTAATCTTTCTGTTCAAGCGCCATCTAC | 2.12 RPM ratio (pull-down/input) |
| GATGATTGTTCTCCCAGCTGATGAATTAAGTTCATCGAGTAAACAAATTTTCCTAATCTTTCTGTTCAAGCGCCATCTAC | 0.931 RPM ratio (pull-down/input) |
| GATGATTGTTCTCCCAGCTGATGAATTTGGCATGTCGAGTAAACAAATTTTCCTAATCTTTCTGTTCAAGCGCCATCTAC | 0.89 RPM ratio (pull-down/input) |
| GATGATTGTTCTCCCAGCTGATGAATTAGCCCTATCGAGTAAACAAATTTTCCTAATCTTTCTGTTCAAGCGCCATCTAC | 0.874 RPM ratio (pull-down/input) |
| GATGATTGTTCTCCCAGCTGATGAATTAACTTCATCGAGTAAACAAATTTTCCTAATCTTTCTGTTCAAGCGCCATCTAC | 0.889 RPM ratio (pull-down/input) |

| Sequence | binding signal |
| --- | --- |
| GATGATTGTTCTCCCAGCTGATGAATTCTAGAGGTCGAGTAAACAAATTTTCCTAATCTTTCTGTTCAAGCGCCATCTAC | 0.79 RPM ratio (pull-down/input) |
| GATGATTGTTCTCCCAGCTGATGAATTTTGGATATCGAGTAAACAAATTTTCCTAATCTTTCTGTTCAAGCGCCATCTAC | 1.05 RPM ratio (pull-down/input) |
| GATGATTGTTCTCCCAGCTGATGAATTCTTCTACTCGAGTAAACAAATTTTCCTAATCTTTCTGTTCAAGCGCCATCTAC | 0.88 RPM ratio (pull-down/input) |
| GATGATTGTTCTCCCAGCTGATGAATTTTCTGACTCGAGTAAACAAATTTTCCTAATCTTTCTGTTCAAGCGCCATCTAC | 0.853 RPM ratio (pull-down/input) |
| GATGATTGTTCTCCCAGCTGATGAATTCTCACAATCGAGTAAACAAATTTTCCTAATCTTTCTGTTCAAGCGCCATCTAC | 1.32 RPM ratio (pull-down/input) |
| GATGATTGTTCTCCCAGCTGATGAATTCATCTTGTCGAGTAAACAAATTTTCCTAATCTTTCTGTTCAAGCGCCATCTAC | 0.898 RPM ratio (pull-down/input) |
| GATGATTGTTCTCCCAGCTGATGAATTTCCCCTATCGAGTAAACAAATTTTCCTAATCTTTCTGTTCAAGCGCCATCTAC | 0.86 RPM ratio (pull-down/input) |
| GATGATTGTTCTCCCAGCTGATGAATTACAAGGATCGAGTAAACAAATTTTCCTAATCTTTCTGTTCAAGCGCCATCTAC | 1.04 RPM ratio (pull-down/input) |
| GATGATTGTTCTCCCAGCTGATGAATTTGGGTAATCGAGTAAACAAATTTTCCTAATCTTTCTGTTCAAGCGCCATCTAC | 1.27 RPM ratio (pull-down/input) |
| GATGATTGTTCTCCCAGCTGATGAATTTTACGTCTCGAGTAAACAAATTTTCCTAATCTTTCTGTTCAAGCGCCATCTAC | 0.869 RPM ratio (pull-down/input) |
| GATGATTGTTCTCCCAGCTGATGAATTTAAGTAATCGAGTAAACAAATTTTCCTAATCTTTCTGTTCAAGCGCCATCTAC | 1.67 RPM ratio (pull-down/input) |
| GATGATTGTTCTCCCAGCTGATGAATTCCGTACCTCGAGTAAACAAATTTTCCTAATCTTTCTGTTCAAGCGCCATCTAC | 0.829 RPM ratio (pull-down/input) |
| GATGATTGTTCTCCCAGCTGATGAATTCACGTACTCGAGTAAACAAATTTTCCTAATCTTTCTGTTCAAGCGCCATCTAC | 0.909 RPM ratio (pull-down/input) |
| GATGATTGTTCTCCCAGCTGATGAATTAGGCGACTCGAGTAAACAAATTTTCCTAATCTTTCTGTTCAAGCGCCATCTAC | 0.87 RPM ratio (pull-down/input) |
| GATGATTGTTCTCCCAGCTGATGAATTGCGGGTATCGAGTAAACAAATTTTCCTAATCTTTCTGTTCAAGCGCCATCTAC | 1.08 RPM ratio (pull-down/input) |
| GATGATTGTTCTCCCAGCTGATGAATTCGCTGCTTCGAGTAAACAAATTTTCCTAATCTTTCTGTTCAAGCGCCATCTAC | 0.883 RPM ratio (pull-down/input) |
| GATGATTGTTCTCCCAGCTGATGAATTCGCACCCTCGAGTAAACAAATTTTCCTAATCTTTCTGTTCAAGCGCCATCTAC | 0.806 RPM ratio (pull-down/input) |
| GATGATTGTTCTCCCAGCTGATGAATTCGAGATATCGAGTAAACAAATTTTCCTAATCTTTCTGTTCAAGCGCCATCTAC | 0.953 RPM ratio (pull-down/input) |
| GATGATTGTTCTCCCAGCTGATGAATTGTAGTATTCGAGTAAACAAATTTTCCTAATCTTTCTGTTCAAGCGCCATCTAC | 1.31 RPM ratio (pull-down/input) |
| GATGATTGTTCTCCCAGCTGATGAATTCGCACACTCGAGTAAACAAATTTTCCTAATCTTTCTGTTCAAGCGCCATCTAC | 0.939 RPM ratio (pull-down/input) |
| GATGATTGTTCTCCCAGCTGATGAATTCGATGTGTCGAGTAAACAAATTTTCCTAATCTTTCTGTTCAAGCGCCATCTAC | 1.02 RPM ratio (pull-down/input) |

| Sequence | binding signal |
| --- | --- |
| GATGATTGTTCTCCCAGCTGATGAATTTAGACTCTCGAGTAAACAAATTTTCCTAATCTTTCTGTTCAAGCGCCATCTAC | 0.99 RPM ratio (pull-down/input) |
| GATGATTGTTCTCCCAGCTGATGAATTTTAGCCGTCGAGTAAACAAATTTTCCTAATCTTTCTGTTCAAGCGCCATCTAC | 0.86 RPM ratio (pull-down/input) |
| GATGATTGTTCTCCCAGCTGATGAATTCGACGACTCGAGTAAACAAATTTTCCTAATCTTTCTGTTCAAGCGCCATCTAC | 0.805 RPM ratio (pull-down/input) |
| GATGATTGTTCTCCCAGCTGATGAATTAAATCCCTCGAGTAAACAAATTTTCCTAATCTTTCTGTTCAAGCGCCATCTAC | 0.886 RPM ratio (pull-down/input) |
| GATGATTGTTCTCCCAGCTGATGAATTCAGAGTATCGAGTAAACAAATTTTCCTAATCTTTCTGTTCAAGCGCCATCTAC | 0.954 RPM ratio (pull-down/input) |
| GATGATTGTTCTCCCAGCTGATGAATTGATAGGGTCGAGTAAACAAATTTTCCTAATCTTTCTGTTCAAGCGCCATCTAC | 0.904 RPM ratio (pull-down/input) |
| GATGATTGTTCTCCCAGCTGATGAATTGTCCCCATCGAGTAAACAAATTTTCCTAATCTTTCTGTTCAAGCGCCATCTAC | 1.08 RPM ratio (pull-down/input) |
| GATGATTGTTCTCCCAGCTGATGAATTTGCGGACTCGAGTAAACAAATTTTCCTAATCTTTCTGTTCAAGCGCCATCTAC | 0.882 RPM ratio (pull-down/input) |
| GATGATTGTTCTCCCAGCTGATGAATTCCAATACTCGAGTAAACAAATTTTCCTAATCTTTCTGTTCAAGCGCCATCTAC | 0.886 RPM ratio (pull-down/input) |
| GATGATTGTTCTCCCAGCTGATGAATTGTATACGTCGAGTAAACAAATTTTCCTAATCTTTCTGTTCAAGCGCCATCTAC | 1.82 RPM ratio (pull-down/input) |
| GATGATTGTTCTCCCAGCTGATGAATTCTTCGGTTCGAGTAAACAAATTTTCCTAATCTTTCTGTTCAAGCGCCATCTAC | 0.764 RPM ratio (pull-down/input) |
| GATGATTGTTCTCCCAGCTGATGAATTACGATTGTCGAGTAAACAAATTTTCCTAATCTTTCTGTTCAAGCGCCATCTAC | 1.16 RPM ratio (pull-down/input) |
| GATGATTGTTCTCCCAGCTGATGAATTGTCGGGCTCGAGTAAACAAATTTTCCTAATCTTTCTGTTCAAGCGCCATCTAC | 0.909 RPM ratio (pull-down/input) |
| GATGATTGTTCTCCCAGCTGATGAATTGCCAGTATCGAGTAAACAAATTTTCCTAATCTTTCTGTTCAAGCGCCATCTAC | 0.962 RPM ratio (pull-down/input) |
| GATGATTGTTCTCCCAGCTGATGAATTGTCTGGATCGAGTAAACAAATTTTCCTAATCTTTCTGTTCAAGCGCCATCTAC | 0.943 RPM ratio (pull-down/input) |
| GATGATTGTTCTCCCAGCTGATGAATTAATCTTCTCGAGTAAACAAATTTTCCTAATCTTTCTGTTCAAGCGCCATCTAC | 0.737 RPM ratio (pull-down/input) |
| GATGATTGTTCTCCCAGCTGATGAATTTGCGTCATCGAGTAAACAAATTTTCCTAATCTTTCTGTTCAAGCGCCATCTAC | 1.24 RPM ratio (pull-down/input) |
| GATGATTGTTCTCCCAGCTGATGAATTAAAAACGTCGAGTAAACAAATTTTCCTAATCTTTCTGTTCAAGCGCCATCTAC | 0.945 RPM ratio (pull-down/input) |
| GATGATTGTTCTCCCAGCTGATGAATTTAAACTCTCGAGTAAACAAATTTTCCTAATCTTTCTGTTCAAGCGCCATCTAC | 0.874 RPM ratio (pull-down/input) |
| GATGATTGTTCTCCCAGCTGATGAATTAGCAATTTCGAGTAAACAAATTTTCCTAATCTTTCTGTTCAAGCGCCATCTAC | 1.07 RPM ratio (pull-down/input) |
| GATGATTGTTCTCCCAGCTGATGAATTACAAGTTTCGAGTAAACAAATTTTCCTAATCTTTCTGTTCAAGCGCCATCTAC | 1.36 RPM ratio (pull-down/input) |
